Some entries share one result that the patent states for a list of compounds. At least one compound was matched to its structure with a doubt left.
How the values were obtained:
[1] = system: cotton aphids (Aphis gossypii); assay: Test Example 1: spray test on cotton aphids parasitized on cucumber; assay type: in vivo
[2] = system: tetranychus urticae koch; assay: Test Example 2: spray test on tetranychus urticae koch on bush bean seedling; assay type: in vivo; details: for controlling value: comparative compounds, same conditions as those of Test Example 2; for Controlling rate (%): 500 ppm, emulsifiable concentrate of Preparation Example 1, 30 ml sprayed on bush bean
[3] = 500 ppm active ingredient, flowable of Preparation Example 5, 20 ml/cup sprayed on cucumber, six days after spraying
[4] = second statement, wider compound list, preparations of Preparation Example 5, concentration not restated

SMILES	Controlling value (%) [1, 3]	Controlling value (%) [1, 4]	controlling value [2]	Controlling rate (%) ([2]; eight days after spraying)	Controlling rate (%) ([2]; thirteen days after spraying)
Cc1cc(C(F)(F)F)cc(-c2noc(=O)[nH]2)n1 [(54)]	≥ 90%	≥ 60%			
Cc1noc(C)c1S(=O)(=O)n1c(-c2ccccn2)noc1=O [comparative compound (A), reference compound]			less than 30%		
O=C(OCn1c(-c2cc(C(F)(F)F)ccn2)noc1=O)c1cccc(Br)c1 [(46)]	≥ 90%	≥ 60%			
CC(c1ccnc(-c2noc(=O)[nH]2)c1)C(F)(F)F (stereo not shown) [(66)]	≥ 90%	≥ 60%		≥ 90%	≥ 90%
O=c1[nH]c(-c2cc(C(F)(F)C(F)(F)F)ccn2)no1 [(59)]				≥ 90%	≥ 90%
O=c1[nH]c(-c2cnccc2C(F)(F)F)no1 [comparative compound (B), reference compound]			less than 30%		
O=c1[nH]c(-c2cc(C(F)(F)F)c(Cl)cn2)no1 [(51)]	≥ 90%	≥ 60%			
O=C(N1CCCC1)n1c(-c2cc(C(F)(F)F)ccn2)noc1=O [(15)]		≥ 60%			
O=c1[nH]c(-c2nccc(C(F)(F)F)c2F)no1 [(50)]	≥ 90%	≥ 60%			
Cc1cc(OCC(F)(F)F)cc(-c2noc(=O)[nH]2)n1 [(29)]	≥ 90%	≥ 60%			
COC(c1ccnc(-c2noc(=O)[nH]2)c1)C(F)(F)F (stereo not shown) [(56)]				≥ 90%	≥ 90%
O=c1[nH]c(-c2cc(C(F)(F)F)cc(C3CC3)n2)no1 [(53)]	≥ 90%	≥ 60%		≥ 90%	≥ 90%
O=c1[nH]c(-c2cc(C(F)(F)F)cc(F)n2)no1 [(49)]				≥ 90%	≥ 90%
O=c1[nH]c(-c2cc(CC(F)(F)F)ccn2)no1 [(60)]				≥ 90%	≥ 90%
CC(Oc1c(Cl)cnc(-c2noc(=O)[nH]2)c1Cl)C(F)(F)F (stereo not shown) [(48)]		≥ 60%			
O=C(OCn1c(-c2cc(C(F)(F)F)ccn2)noc1=O)c1cccc(OC(F)(F)F)c1 [(45)]		≥ 60%			
CC(C)(C)C(=O)n1c(-c2cc(C(F)(F)F)ccn2)noc1=O [(8)]	≥ 90%				
CCOCn1c(-c2cc(C(F)(F)F)ccn2)noc1=O [(7)]	≥ 90%				
O=C(C1CC1)n1c(-c2cc(C(F)(F)F)ccn2)noc1=O [(4)]	≥ 90%	≥ 60%		≥ 90%	≥ 90%
Cc1ccc(C(=O)OCn2c(-c3cc(C(F)(F)F)ccn3)noc2=O)cc1 [(35)]		≥ 60%			
O=C(OCn1c(-c2cc(C(F)(F)C(F)(F)F)ccn2)noc1=O)c1ccccc1 [(65)]	≥ 90%	≥ 60%			
Cc1cc(OC(C)C(F)(F)F)cc(-c2noc(=O)[nH]2)n1 (stereo not shown) [(30)]	≥ 90%	≥ 60%			
O=c1[nH]c(-c2cc(C(F)(F)F)ccn2)no1 [(2)]	≥ 90%	≥ 60%		≥ 90%	≥ 90%
O=c1[nH]c(-c2cc(C(F)(F)F)cc(Cl)n2)no1 [(1)]	≥ 90%	≥ 60%		≥ 90%	≥ 90%
O=C(OCn1c(-c2cc(C(F)(F)F)ccn2)noc1=O)c1cccc(Cl)c1 [(32)]	≥ 90%	≥ 60%			

— patent publication US8318776B2, “Pyridine compound, pesticidal composition and method of controlling pests” (Sumitomo Chemical Company, Limited, priority 2007, dated 2012)
